{"source": "paper PMC4336329", "about": "(PLoS ONE, 2015)", "note": "Among all 310,000 compounds or so, about 2,200 (0.71%) showed an effect of 50% or more. Effects have a minus sign here. This is one part of the list.", "data": [{"target": "human ether-à-go-go-related gene (hERG) potassium channel (human, UniProt Q12809)", "sequence (Q12809 whole entry, looked up)": "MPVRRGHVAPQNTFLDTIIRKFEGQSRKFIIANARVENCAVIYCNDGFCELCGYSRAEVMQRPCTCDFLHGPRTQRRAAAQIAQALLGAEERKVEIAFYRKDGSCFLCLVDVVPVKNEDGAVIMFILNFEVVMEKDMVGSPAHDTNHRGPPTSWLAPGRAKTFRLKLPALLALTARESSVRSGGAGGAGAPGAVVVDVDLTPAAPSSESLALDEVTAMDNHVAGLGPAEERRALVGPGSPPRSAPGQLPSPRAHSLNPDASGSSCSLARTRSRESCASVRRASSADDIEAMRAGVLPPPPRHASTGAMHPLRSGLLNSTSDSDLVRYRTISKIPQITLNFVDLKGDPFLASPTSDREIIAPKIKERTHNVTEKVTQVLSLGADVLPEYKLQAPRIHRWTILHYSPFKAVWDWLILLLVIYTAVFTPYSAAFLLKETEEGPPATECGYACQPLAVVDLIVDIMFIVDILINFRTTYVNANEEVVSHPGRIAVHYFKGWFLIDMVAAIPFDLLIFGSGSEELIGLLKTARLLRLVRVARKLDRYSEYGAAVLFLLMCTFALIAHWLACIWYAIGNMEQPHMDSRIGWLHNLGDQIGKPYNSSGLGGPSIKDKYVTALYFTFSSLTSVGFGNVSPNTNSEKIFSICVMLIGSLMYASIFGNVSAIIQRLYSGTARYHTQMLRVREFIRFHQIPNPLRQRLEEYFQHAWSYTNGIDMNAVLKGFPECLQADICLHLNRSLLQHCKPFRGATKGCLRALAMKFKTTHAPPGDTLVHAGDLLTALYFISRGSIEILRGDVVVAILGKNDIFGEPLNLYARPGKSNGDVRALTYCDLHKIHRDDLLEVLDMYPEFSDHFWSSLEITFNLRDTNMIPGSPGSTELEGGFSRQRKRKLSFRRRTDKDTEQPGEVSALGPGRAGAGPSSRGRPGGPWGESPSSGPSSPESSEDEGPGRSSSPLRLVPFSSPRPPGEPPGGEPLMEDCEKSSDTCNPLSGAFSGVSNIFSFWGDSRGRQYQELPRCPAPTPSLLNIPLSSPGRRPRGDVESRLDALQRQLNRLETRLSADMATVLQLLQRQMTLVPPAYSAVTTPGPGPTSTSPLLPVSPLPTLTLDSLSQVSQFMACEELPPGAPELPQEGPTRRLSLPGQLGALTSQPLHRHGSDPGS", "experiment": "primary screen, population patch clamp on CHO cells stably expressing hERG", "units": {"hERG current change (%, negative = inhibition) at 1uM": "%"}, "values": [{"smiles": "CN(Cc1nc(-c2ccccn2)no1)S(=O)(=O)c1ccc(Br)cc1", "hERG current change (%, negative = inhibition) at 1uM": 3.72}, {"smiles": "COc1cccc(N(CC(=O)N2CCc3ccccc3C2)S(C)(=O)=O)c1", "hERG current change (%, negative = inhibition) at 1uM": 0.216}, {"smiles": "Cc1ccc(NC(=O)CN2C(=O)CNC2=O)cc1", "hERG current change (%, negative = inhibition) at 1uM": 15.8}, {"smiles": "CCOc1ccc2[nH]c(=O)c(CN(Cc3nnnn3CCc3ccccc3)CC3CCCO3)cc2c1", "note": "(centres unmarked)", "hERG current change (%, negative = inhibition) at 1uM": -3.6}, {"smiles": "CC(C)(CN1CCOCC1)NS(=O)(=O)c1ccccc1", "hERG current change (%, negative = inhibition) at 1uM": 6.67}, {"smiles": "Cc1cccn2c(=O)nc(SCC(=O)NCc3ccccc3Cl)nc12", "hERG current change (%, negative = inhibition) at 1uM": 4.08}, {"smiles": "COc1ccc(-c2cc(CN3C(=O)c4ccccc4C3=O)on2)cc1", "hERG current change (%, negative = inhibition) at 1uM": 6.01}, {"smiles": "Cc1ccc(Cn2c(=N)c(C(=O)NCC3CCCO3)cc3c(=O)n4cccc(C)c4nc32)cc1", "note": "(centres unmarked)", "hERG current change (%, negative = inhibition) at 1uM": -85.9}, {"smiles": "CCOC(=O)C1=C(COC(=O)COc2ccc(Br)cc2)NC(=O)NC1C", "note": "(centres unmarked)", "hERG current change (%, negative = inhibition) at 1uM": 18.2}, {"smiles": "COc1ccc2c(C(=O)CCl)c[nH]c2c1", "hERG current change (%, negative = inhibition) at 1uM": 12.5}, {"smiles": "FC(F)(F)c1ccc(-c2noc(CN3CCCN(C4CCCCC4)CC3)n2)cc1", "hERG current change (%, negative = inhibition) at 1uM": -75.3}, {"smiles": "Cc1ccc(N2C(=O)/C(=C\\c3ccc(C(C)C)cc3)N=C2SC2CCOC2=O)cc1", "note": "(centres unmarked)", "hERG current change (%, negative = inhibition) at 1uM": 15.8}, {"smiles": "CCn1nc(NC(=O)c2ccccc2)c2cc3cccc(C)c3nc21", "hERG current change (%, negative = inhibition) at 1uM": 11}, {"smiles": "CNC(=O)c1cccn1-c1ccsc1C(=O)OC", "hERG current change (%, negative = inhibition) at 1uM": 13.1}, {"smiles": "COc1cccc(N2CCN(C(=O)c3cc(C)oc3C)CC2)c1", "hERG current change (%, negative = inhibition) at 1uM": 6.38}, {"smiles": "CCCc1nn2c(=O)cc(O)nc2s1", "hERG current change (%, negative = inhibition) at 1uM": 14.8}, {"smiles": "C[C@H](NC(=O)c1cc2cc(Cl)ccc2n1C)C(=O)N[C@@H](Cc1ccccc1)C(=O)O", "hERG current change (%, negative = inhibition) at 1uM": 12.6}, {"smiles": "CCOC(=O)c1c(NC(=O)C2CCCO2)sc(C)c1C", "note": "(centres unmarked)", "hERG current change (%, negative = inhibition) at 1uM": 12.3}, {"smiles": "O=[N+]([O-])c1ccc(Nc2nc(Cl)nc(NCCO)n2)cc1", "hERG current change (%, negative = inhibition) at 1uM": 2.88}, {"smiles": "C=CCOC(=O)C1=C(C)OC(N)=C(C#N)[C@@]12C(=O)N(CC(N)=O)c1ccccc12", "hERG current change (%, negative = inhibition) at 1uM": -0.87}, {"smiles": "O=C(COc1ccccc1)OCc1cc(-c2ccco2)on1", "hERG current change (%, negative = inhibition) at 1uM": 10.6}, {"smiles": "O=C(Cc1ccccc1)N1CCN(c2ccccc2F)CC1", "hERG current change (%, negative = inhibition) at 1uM": 20.3}, {"smiles": "COc1ccc(OC)c(NC(=O)c2ccc(CSc3nnc(C)s3)cc2)c1", "hERG current change (%, negative = inhibition) at 1uM": 9.22}, {"smiles": "O=C(c1ccccc1[N+](=O)[O-])N1CCc2ccccc2C1", "hERG current change (%, negative = inhibition) at 1uM": 8.58}, {"smiles": "O=c1c2ccccc2c(C=Nc2ccccc2O)c(O)n1-c1nccs1", "hERG current change (%, negative = inhibition) at 1uM": 8.26}, {"smiles": "Cc1nc2cc(NC(=O)CCS(=O)(=O)c3ccccc3)ccc2s1", "hERG current change (%, negative = inhibition) at 1uM": 10.1}, {"smiles": "O=C(NCc1cccnc1)c1cc(-c2ccc(Cl)cc2)oc1C(F)(F)F", "hERG current change (%, negative = inhibition) at 1uM": 10.5}, {"smiles": "CCn1nc(C)c(Br)c1-c1nc(CS(=O)(=O)c2ccsc2)no1", "hERG current change (%, negative = inhibition) at 1uM": 9.13}, {"smiles": "Cc1ccc(-n2ncc(C#N)c2N)cc1", "hERG current change (%, negative = inhibition) at 1uM": 9.2}, {"smiles": "CN(C(=O)COC(=O)CN1C(=O)C2CC=CCC2C1=O)c1ccccc1", "note": "(centres unmarked)", "hERG current change (%, negative = inhibition) at 1uM": 19}, {"smiles": "CCN(CC)c1ccc(/C=N/NC(=O)CNC(=O)C2COc3ccccc3O2)c(O)c1", "note": "(centres unmarked)", "hERG current change (%, negative = inhibition) at 1uM": -2.1}, {"smiles": "CCOc1cc(/C=N/Nc2ncnc(Cl)c2N)ccc1O", "hERG current change (%, negative = inhibition) at 1uM": 17.8}, {"smiles": "COc1cc([N+](=O)[O-])c(C(=O)N2CCOCC2)c([N+](=O)[O-])c1", "hERG current change (%, negative = inhibition) at 1uM": 9.84}, {"smiles": "O=[N+]([O-])c1cc(Cl)c(Cl)c(Cl)c1Cl", "hERG current change (%, negative = inhibition) at 1uM": 18.5}, {"smiles": "COC(=O)c1cc2c(N)c(C(=O)c3ccc(Cl)cc3)sc2nc1C(OC)OC", "hERG current change (%, negative = inhibition) at 1uM": -32.2}, {"smiles": "CC1CN(c2ccc(Cl)nn2)CC(C)O1", "note": "(centres unmarked)", "hERG current change (%, negative = inhibition) at 1uM": -5.24}, {"smiles": "Cc1cc(NC(=O)CCC(=O)N(CC(=O)NC2CCCC2)c2ccc3c(c2)OCCO3)no1", "hERG current change (%, negative = inhibition) at 1uM": 10.3}, {"smiles": "COC(=O)C(c1ccccc1)C1(O)CC(C)N(C)CC1C", "note": "(centres unmarked)", "hERG current change (%, negative = inhibition) at 1uM": 6.08}, {"smiles": "Cc1ccc(OCC(=O)Nc2ccc([N+](=O)[O-])cc2)cc1", "hERG current change (%, negative = inhibition) at 1uM": 10.8}, {"smiles": "O=C1CC(C(=O)Nc2ccc(F)cc2)S/C(=N\\N=C\\c2ccco2)N1", "note": "(centres unmarked)", "hERG current change (%, negative = inhibition) at 1uM": 9.9}, {"smiles": "O=C(CN1CCN(S(=O)(=O)c2ccc(Cl)cc2)CC1)Nc1ccc2c(c1)CCC2", "hERG current change (%, negative = inhibition) at 1uM": 10.6}, {"smiles": "COC(=O)c1nn(-c2cccc(C)c2)c2nnc(Cc3ccc(C)cc3)c(=O)n12", "hERG current change (%, negative = inhibition) at 1uM": 4.21}, {"smiles": "CC1CCN(C(=O)CSc2nc3ccccc3[nH]2)CC1", "hERG current change (%, negative = inhibition) at 1uM": -4.01}, {"smiles": "O=C(NCc1ccncc1)C(=O)NCC1OCCCN1S(=O)(=O)c1cc(F)ccc1F", "note": "(centres unmarked)", "hERG current change (%, negative = inhibition) at 1uM": 8.04}, {"smiles": "N/C(=N\\OC(=O)c1ccc(=O)n(Cc2ccccc2)c1)c1ccccn1", "hERG current change (%, negative = inhibition) at 1uM": 23.4}, {"smiles": "CC(=O)Nc1ccc(NC(=O)c2cc(-c3ccc(C)c(C)c3O)n[nH]2)cc1", "hERG current change (%, negative = inhibition) at 1uM": 11.6}, {"smiles": "Cc1ccccc1-c1nc(CS(=O)(=O)CC(=O)NCCCN2CCOCC2)c(C)o1", "hERG current change (%, negative = inhibition) at 1uM": 9.57}, {"smiles": "CCC(C)(C)NC(=O)C(c1ccc(OC)cc1)N(C(=O)CCC(=O)Nc1cc(C)on1)c1cccc(OC)c1", "note": "(centres unmarked)", "hERG current change (%, negative = inhibition) at 1uM": 13.8}, {"smiles": "Cc1cc(C(=O)CCC(=O)Nc2ccc(S(N)(=O)=O)cc2)c(C)s1", "hERG current change (%, negative = inhibition) at 1uM": 13.9}, {"smiles": "O=C(Oc1ccc2c(c1)OCO2)c1cc2c(s1)CCC2", "hERG current change (%, negative = inhibition) at 1uM": 13.2}, {"smiles": "COC(=O)c1cc(-c2ccccc2)on1", "hERG current change (%, negative = inhibition) at 1uM": -5.82}, {"smiles": "Cc1ccc(S(=O)(=O)N2CCOC2CNC(=O)C(=O)NCCN2CCOCC2)cc1", "note": "(centres unmarked)", "hERG current change (%, negative = inhibition) at 1uM": 13.6}, {"smiles": "COc1ccc(C(C(=O)NC2CCCC2)N(Cc2ccccc2)C(=O)c2nsc(Cl)c2Cl)cc1", "note": "(centres unmarked)", "hERG current change (%, negative = inhibition) at 1uM": 14.7}, {"smiles": "CC(OC(=O)c1ccco1)C(=O)Nc1ncc(Cl)cc1Cl", "note": "(centres unmarked)", "hERG current change (%, negative = inhibition) at 1uM": 10.8}, {"smiles": "CC(=O)Oc1ccc(-c2cccc(C(=O)N(C)c3ccc(O)cc3)c2)cc1", "hERG current change (%, negative = inhibition) at 1uM": -1.3}, {"smiles": "CCOC(=O)c1c(C)[nH]c(C(=O)OCC(=O)N(C)CC(=O)Nc2ccccc2Cl)c1C", "hERG current change (%, negative = inhibition) at 1uM": 4.78}]}]}
